# Source: PubChem BioAssay AID686979 (National Center for Advancing Translational Sciences (NCATS), 2013)
# Several values for one entry are separate records, joined by “and”; a condition that tells them apart may be missing. Equal entries are not always repeated. About 50,000 (12%) of roughly 420,000 compounds were called active. The shares of active, inactive and inconclusive entries below differ from those in the screen. Calls come from the whole dose curve; as a rule, active = well fitted inhibition curve with a large enough effect; inconclusive = small, poorly fitted or top-dose-only effect; inactive = flat fitted curve, though single readings scatter. Potencies of inconclusive entries are doubtful fits and often do not repeat.
# Test: qHTS for Inhibitors of human tyrosyl-DNA phosphodiesterase 1 (TDP1): qHTS in cells in presence of CPT; note: nearly all actives have a fitted effect of over 55% in size
# Conditions: chicken DT40 Tdp1-/-;hTDP1 cells + 20 nM CPT, ATP luminescence, 48 h; activity change, negative = growth inhibition: at 46.2 µM (top of the series) unless noted
# How it was run: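 Chicken DT40 Tdp1-/- cells stably complemented with human TDP1 were seeded at 400 cells/well in medium containing 20 nM camptothecin, exposed to pin-transferred compounds, and grown at 37 °C for at least 48 hr. Viability was read as ATP luminescence.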
# % is set by controls: 0 for no effect and ±100 for the full control effect; potency is the fitted concentration of half-maximal effect; tags give direction and shape of the fitted curve.
SMILES,Potency,"activity change, negative = growth inhibition"
c1ccc(COc2ncnc3c2ncn3CCCN2CCN(Cc3cccc4ccccc34)CC2)cc1,"inconclusive: 23.1 µM [inhibitor, single point]",
COc1ccc(-c2nc(-c3ccccn3)ncc2S(C)(=O)=O)cc1,inactive,
CC1CN(Cc2c(O)ccc3c(=O)c(-c4ccccc4Cl)coc23)CC(C)O1 (configuration not stated),,inconclusive: -30.6% [inhibitor]
COc1cccc(CN(C)CC(=O)Nc2cccc(C(F)(F)F)c2)c1OC,"inconclusive: 18.4 µM [inhibitor, single point]",
Cc1sc2ncnc(Sc3ccccc3C(=O)Nc3ccc(C#N)cc3)c2c1C,active: 20.6 µM,
CCC(C)c1ccc(NC(=O)NCCN2CCCCC2)cc1 (configuration not stated),"inconclusive: 6.51 µM [inhibitor, single point]",
C=CCNC(=S)N1CCN(c2ncc3c(=O)c(C(=O)O)cn(CC)c3n2)CC1,"inconclusive: 20.6 µM [inhibitor, partial curve, poor fit]",
Cc1ccc(S(=O)(=O)CCC(=O)Nc2cccc(S(=O)(=O)N3CCCCCC3)c2)cc1,,inconclusive: -30.8% [inhibitor]
Cc1ccc(C(=O)NC(=S)N(C)Cc2ccccc2)cc1,"inconclusive: 29.1 µM [inhibitor, single point]",
COc1ccc(Br)cc1/C=N/NC(=O)c1cc(OC)c(OC)c(OC)c1,"inconclusive: 25.9 µM [inhibitor, single point]",
CCCCOc1ccc(C(=O)N2CCC(c3nc4ccccc4o3)CC2)cc1,"inconclusive: 20.6 µM [inhibitor, single point]",
O=[N+]([O-])c1ccc(N=Cc2c(O)ccc3ccccc23)cc1,"inconclusive: 20.6 µM [inhibitor, single point]",
CCN(C(=O)COC(=O)c1cc([N+](=O)[O-])ccc1N1CCOCC1)c1ccccc1,"inconclusive: 23.1 µM [inhibitor, single point]",
Cc1ccc(Nc2nc(Cl)nc(NC(C)(C)C)n2)cc1,"inconclusive: 23.1 µM [inhibitor, partial curve]",
c1ccc(Cn2cc(CN3CCCCO3)c(-c3ccc4c(c3)OCO4)n2)cc1,inactive,
Cc1cccc(N2CCN(C(=O)NC3CCCCC3)CC2C)c1 (configuration not stated),inactive,
O=C(OCc1ccccc1C(F)(F)F)c1cc([N+](=O)[O-])ccc1N1CCOCC1,,inconclusive: -30.6% [inhibitor]
O=C(OCc1nnc(-c2ccccc2)o1)c1cc(=O)c2ccccc2o1,"inconclusive: 0.517 µM [inhibitor, full curve, poor fit]",
CCO[C@H]1OC(C(=O)NC2CC2)=C[C@@H](C2CCCCC2)[C@@H]1CCCO,active: 20.6 µM,
Cc1ccc(C(OCC(O)CN2CCCCC2)c2ccccc2)cc1 (configuration not stated),inactive,
COC(=O)c1sc2cccc(F)c2c1S(=O)(=O)N1CCN(c2ccccc2OC)CC1,"inconclusive: 29.1 µM [inhibitor, single point]",
COc1ccc(OC)c(NC(=O)CSc2nc(-c3ccccc3C)nc3cc(=O)[nH]n23)c1,"inconclusive: 29.1 µM [inhibitor, single point]",
C/C=C\C=C/C(=O)Nc1cccc(C2=NOC3(C2)C[C@@H](C(N)=O)N(C(=O)CCCCC)C3)c1 (some centres not stated),"inconclusive: 29.1 µM [inhibitor, single point]",

SMILES,Potency,"activity change, negative = growth inhibition"
O=C(Nc1ccc(SC(F)F)cc1)c1cc(-c2cccs2)on1,"inconclusive: 14.6 µM [inhibitor, partial curve, poor fit]",
CC(NC(=O)c1nn(C)c2c1CSc1ccccc1-2)c1ccccc1 (configuration not stated),"inconclusive: 16.4 µM [inhibitor, single point]",
CC1CCN(C(=O)CN2CCSc3ccccc32)CC1,inactive,
CCc1ccc(NC(=O)COC(=O)c2cccs2)cc1,inactive,
O=C(NCCc1ccccc1)c1ccc2c(c1)CCN2S(=O)(=O)c1ccc(Br)cc1,"inconclusive: 9.2 µM [inhibitor, single point]",
CCn1ccnc1CNCc1cn(-c2cc(C)ccc2C)nc1-c1ccccc1,"inconclusive: 16.4 µM [inhibitor, single point]",
Cc1ccccc1NC(=O)Nc1ccccc1N1CCCCC1,"inconclusive: 29.1 µM [inhibitor, single point]",
CC(=O)c1cccc(NC(=O)CCCN2C(=O)COc3ccc(C)cc32)c1,active: 18.4 µM,
CCOc1ccc(C(=O)Nc2nnc(S(=O)(=O)N(CC)c3ccccc3C)s2)cc1,"inconclusive: 29.1 µM [inhibitor, single point]",
Cc1ccc(-c2cc(NC(=O)C(C)Oc3ccc(C)c(C)c3)on2)cc1 (configuration not stated),"inconclusive: 23.1 µM [inhibitor, single point]",
CC(OC(=O)C1CCN(c2ccc(C(F)(F)F)cn2)CC1)C(=O)c1ccccc1 (configuration not stated),"inconclusive: 16.4 µM [inhibitor, single point]",
CCn1cc(C(=O)O)c(=O)c2cnc(N3CCN(C(=S)NC(=O)c4ccccc4)CC3)nc21,inactive,
COc1ccc(S(=O)(=O)N2CCN(C(=O)c3cccs3)CC2)cc1OC,"inconclusive: 29.1 µM [inhibitor, single point]",
O=C(Cc1ccccc1)Nc1c(C(=O)N2CCN(c3ccc(F)cc3)CC2)oc2ccccc12,active: 16.4 µM,
COC(=O)c1cnn2c(C)c(Cc3cccc(F)c3)c(C)nc12,"inconclusive: 23.1 µM [inhibitor, single point]",
Cn1nc(C(=O)Nc2ccccc2Cl)cc1C(=O)Nc1ccccc1Cl,"inconclusive: 29.1 µM [inhibitor, single point]",
Cc1cc(CN(C)C(=O)C2CCC(=O)N(CCc3ccccc3)C2)n[nH]1 (configuration not stated),inactive,
Cc1ccc(C)c(NC(=O)CN2C(=O)CSc3nc(C)cc(C)c32)c1,inactive,
CCOc1ccc(C2CC(c3cccc(C)c3)n3ncnc3N2)cc1 (configuration not stated),active: 13 µM,
COc1ccc(CNc2ccc3cc(S(=O)(=O)N4CCCCC4)ccc3n2)cc1,"inconclusive: 23.1 µM [inhibitor, single point]",
N#Cc1cccc(C(=O)C(=O)N2CCN(C(=O)OCc3ccccc3)CC2)c1,"inconclusive: 18.4 µM [inhibitor, single point]",
O=C(Nc1nnc(Cc2ccc(Cl)cc2)s1)C1CCN(C(=O)c2ccco2)CC1,"inconclusive: 25.1 µM [inhibitor, single point]",
Cc1ccc2c(Cl)cc(Cl)c(OCC(=O)O)c2n1,inactive,

SMILES,Potency,"activity change, negative = growth inhibition"
CCN1CCN(CC(=O)Nc2ccc(Cl)c(S(=O)(=O)N(C)C)c2)CC1,inactive,
COc1cc(OC)cc(C(=O)N2CCC(c3ccncc3)CC2)c1,inactive,
COc1ccc(N2CC(c3nc(-c4cc(OC)c(OC)c(OC)c4)no3)CC2=O)cc1Cl (configuration not stated),"inconclusive: 18.4 µM [inhibitor, single point]",
COc1ccc(NC(=O)[C@@H]2CC=C[C@@H]3CCN(Cc4ccc(Cl)c(Cl)c4)C(=O)[C@@H]32)cc1,"inconclusive: 22.4 µM [inhibitor, single point] and inconclusive: 29.1 µM [inhibitor, single point]",
CCCCCCCCN(CCCCCCCC)c1ccc(/C=C/c2ccnc3ccccc23)cc1,inactive,
COc1cccc(C(=O)/C=C/c2ccc(N3CCCCC3)c([N+](=O)[O-])c2)c1,active: 18.4 µM,
Cc1cc(C)c2c(=O)c3c(oc2c1)C(=O)N(Cc1ccc(F)cc1)C3c1cccc(O)c1 (configuration not stated),active: 23.1 µM,
CCn1c(N)[n+](CC(=O)Nc2ccc(SC(F)F)cc2)c2ccccc21,"inconclusive: 29.1 µM [inhibitor, single point]",
Cc1cc2oc(=O)cc(CN3CCCCC3C)c2cc1C (configuration not stated),"inconclusive: 25.9 µM [inhibitor, single point]",
Cc1cc(C)c2c(c1)cc(C)c1nnc(SCC(=O)Nc3ccc(S(=O)(=O)N4CCCCC4)cc3)n12,"inconclusive: 25.9 µM [inhibitor, single point]",
CC1CC(=O)c2cc(-c3ccccc3)oc2C1 (configuration not stated),inactive,
CC(=O)Oc1c(Cl)cc(Cl)cc1/C=C/c1ccc2ccccc2n1,,inconclusive: -31.4% [inhibitor]
C#CCOc1ccc(C2C3=C(CCCC3=O)N(CC(=O)O)C3=C2C(=O)CCC3)cc1Br,inactive,
CCCCCn1c(SCc2ccncc2)nc2cc(C(=O)NCc3ccco3)ccc2c1=O,"inconclusive: 16.4 µM [inhibitor, single point]",
NC(=O)CC(NC(=O)Cc1cccc2ccccc12)c1ccc(N2CCN(c3ccc(F)cc3)CC2)c([N+](=O)[O-])c1 (configuration not stated),"inconclusive: 20.6 µM [inhibitor, single point]",
CC(C)(C)c1ccc(C(=O)COC(=O)CN2C(=O)NC3(CCCC3)C2=O)cc1,"inconclusive: 23.1 µM [inhibitor, single point]",
CCOc1ccc(CONS(=O)(=O)c2ccc(NC(C)=O)cc2)cc1Cl,"inconclusive: 9.2 µM [inhibitor, partial curve]",
COc1ccccc1/C=C/C(=O)Nc1cccc(C(C)=O)c1,"inconclusive: 25.9 µM [inhibitor, single point]",
CCN(CC)S(=O)(=O)c1ccc(N/N=C/c2ccc(OC)c(OC)c2OC)nc1,"inconclusive: 23.1 µM [inhibitor, single point]",
CCOC(=O)C1=C[C@@H](C(C)C)N(S(=O)(=O)c2ccc([N+](=O)[O-])cc2)[C@H]1c1ccccc1,"inconclusive: 29.1 µM [inhibitor, single point]",
C/C(=N\NC(=O)c1cccc(C)c1)c1ccc(N2CCOCC2)cc1,"inconclusive: 29.1 µM [inhibitor, single point]",
